Reference: PubChem BioAssay AID493208 (National Center for Advancing Translational Sciences (NCATS), 2011)
Out of some 44,000 compounds screened, about 340 (0.77%) were called active. Roughly 5% stayed inconclusive and do not appear here. The call rests on the fitted dose curve; in most records, active means well fitted inhibition curve with a large enough effect; inconclusive means small, poorly fitted or top-dose-only effect; inactive means flat fitted curve, though single readings scatter. The list shows a part of the results.

experiment: Acumen qHTS Assay for Inhibitors of the mTORC1 Signaling Pathway in MEF (Tsc2-/-, p53-/-) Cells: Sytravon; conditions: phospho-rpS6 immunofluorescence/PI, 24 h; series mostly up to 38.3 µM; activity change, negative = inhibition: at the top concentration; further: nearly all actives have a fitted effect of over 50% in size;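 on activity change, negative = inhibition: plate controls were DMSO for no effect and rapamycin for full effect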
Outline: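 Readout is phospho-S6 Alexa 488 signal normalized to PI per well, reported as % active cells with thresholds set from rapamycin (7.5 nM) and DMSO controls. Cells: Tsc2-/-, p53-/- MEFs, 24 hrs compound at 37 C; PI cell number serves as viability.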
Potency means the concentration at half of the fitted maximal effect.

| Structure (SMILES) | activity change, negative = inhibition | Potency |
| --- | --- | --- |
| CCC(=O)Oc1ccc(C2Nc3ccccc3-c3nnc(SC)nc3O2)cc1 (stereo not drawn) | inactive: -2.75% |  |
| Cc1ccc(S(=O)(=O)Nc2cc3c(cc2N2CCOCC2)n(C)c(=O)n3C)cc1 | inactive: -17.5% |  |
| Cc1ccc2nc(-c3cc(NC(=O)COc4ccc(C)c(C)c4)ccc3Cl)oc2c1 | inactive: -15.8% |  |
| COC(=O)C1CCN(S(=O)(=O)c2ccc(N3CCCCS3(=O)=O)cc2)CC1 | inactive: 0% |  |
| COC(=O)c1cc(C)nc2c1c(=O)nc(SCc1ccccc1C)n2C1CC1 | inactive: 5.22% |  |
| Cc1cccc(NC(=O)C(Cc2ccccc2)NS(=O)(=O)c2ccc3c(c2)c(=O)n(C)c(=O)n3C)c1 (stereo not drawn) | inactive: -7.47% |  |
| Cc1ccc(C(=O)NCC(c2ccc3c(c2)OCO3)N2CCOCC2)cc1 (stereo not drawn) | inactive: -1.63% |  |
| CCc1nn(CCCC(=O)N2CCN(c3cccc(OC)c3)CC2)c(=O)c2cc3occc3n12 | inactive: -7.49% |  |
| Cc1c(-c2nc(-c3ccc4c(c3)OCO4)no2)nnn1-c1ccc(C(C)C)cc1 | inactive: 4.79% |  |
| Cc1ccc(S(=O)Cc2nc(-c3ccc(C(=O)NCc4cccc(C)c4)cc3)oc2C)cc1 (stereo not drawn) | inactive: 1.25% |  |
| O=C(CCn1nc(-c2ccc(Cl)cc2)ccc1=O)NCCc1ccccc1 | inactive: 6.78% |  |
| CC(=O)Nc1c(C)nn(-c2ccccc2)c1N1CCC(C(=O)NCc2ccccc2Cl)CC1 | inactive: -18.1% |  |
| CCOC(=O)c1c(NC(=O)CSc2cn(CCNC(=O)c3c(F)cccc3F)c3ccccc23)sc2c1CCC2 | inactive: 4.83% |  |
| COc1ccc(CCN2C(=O)c3[nH]nc(-c4ccccc4O)c3C2c2ccc(OC)c(OC)c2)cc1 (stereo not drawn) | inactive: -24% |  |
| CCOC(=O)COc1ccc(F)cc1C(=O)c1ccn2nc(-c3ccc(Cl)cc3)cc2n1 | inactive: 1.71% |  |
| CCOC(=O)c1noc2ncnc(Nc3cccc(OC)c3)c12 | inactive: -7.8% |  |
| O=C(COc1ccccc1Cl)Nc1ccc2nc(SCC(=O)N3CCCC3)sc2c1 | inactive: -5.64% |  |
| CCCn1c(=O)c2sccc2n2c(CCCC(=O)NCc3ccccc3)nnc12 | inactive: 1.65% |  |
| COc1cccc(NC(=O)CSc2nc(-c3ccccc3Cl)nc3c2Cc2c(CO)cnc(C)c2O3)c1 | inactive: -2.33% |  |
| COc1ccc(-c2cc(-c3ccccc3)nc(SCC(=O)Nc3ccccc3F)c2C#N)cc1 | inactive: -0.167% |  |
| CCOC(=O)C1=C(CS(=O)(=O)c2ccc(OC)c(Cl)c2)NC(=O)NC1c1cccc(OC)c1 (stereo not drawn) | inactive: -0.922% |  |
| CCc1ccc(S(=O)(=O)c2cn(C)c3cc(N4CCCC4)c(F)cc3c2=O)cc1 | inactive: -1.21% |  |
| COC(=O)c1nnn(-c2ccc(Br)cc2)c1C(=O)OC | inactive: 3.17% |  |
| O=C(NCc1ccco1)c1ccc2c(c1)N(Cc1ccc(Cl)cc1)C(=O)c1ccccc1S2(=O)=O | inactive: -11.2% |  |

| Structure (SMILES) | activity change, negative = inhibition | Potency |
| --- | --- | --- |
| CN(Cc1ccccc1)c1ccc(-c2nc(-c3ccncc3)no2)cc1[N+](=O)[O-] | inactive: -4.86% |  |
| Cc1cc(C)cc(C(=O)NCC(c2ccc(N(C)C)cc2)N2CCCC2)c1 (stereo not drawn) | inactive: 7.33% |  |
| COc1cccc(NC(=O)C2CCCN(S(=O)(=O)c3cccc4nonc34)C2)c1 (stereo not drawn) | inactive: -47.5% |  |
| Cc1cn2c(=O)c(S(=O)(=O)Nc3ccc(F)cc3F)c(C)nc2s1 | inactive: 0.726% |  |
| O=C(NCCC1=CCCCC1)C1CCN(C(=O)N2CCOc3ccc(Cl)cc32)CC1 | inactive: -2.1% |  |
| CCOC(=O)CC(NC(=O)CCc1c(C)nc2ncnn2c1C)c1ccc(C)cc1 (stereo not drawn) | inactive: 0.423% |  |
| CCOc1ccc(C(=O)NCCc2csc(-c3cccc(F)c3)n2)cc1OCC | inactive: -6% |  |
| Oc1ccccc1Nc1nc2ccccc2n2nnnc12 | inactive: -4.28% |  |
| O=C(NCc1ccc(Cl)cc1)c1ccc(Cn2c(=O)c3cccn3c3cccnc32)cc1 | inactive: 5.06% |  |
| COc1ccc(S(=O)(=O)N2CCN(Cc3nc4ccc(C)cc4o3)CC2)cc1 | inactive: 0% |  |
| Cc1ccc(C)c(Nc2nnc(-c3ccc(C)c(S(=O)(=O)NCC4CCCO4)c3)c3ccccc23)c1 (stereo not drawn) | inactive: -14.9% |  |
| O=C(Cn1c(=O)n(Cc2nc(-c3ccccc3)no2)c(=O)c2ccccc21)Nc1cccc(Cl)c1 | inactive: -5.17% |  |
| O=C1CCc2cc(S(=O)(=O)NC(C(=O)Nc3cccc(F)c3)c3ccccc3)ccc2N1 (stereo not drawn) | inactive: 2.25% |  |
| COc1ccc(-c2c(C)c3ccc(O)c(CN4CCCC(C)C4)c3oc2=O)cc1OC (stereo not drawn) | inactive: -20.2% |  |
| COCCCNC(=O)c1ccc2c(c1)N(Cc1ccccc1F)C(=O)c1ccccc1S2=O (stereo not drawn) | inactive: 0.0606% |  |
| COc1ccc(-c2nnc(SCC(=O)Nc3ccc(C)c(C)c3)s2)cc1 | inactive: -1.79% |  |
| CCc1ccccc1NC(=O)CCCN1C(=O)CCn2nc(-c3cn(C)c4ccccc34)cc21 | inactive: -7.22% |  |
| COc1cccc(NC(=O)c2oc3ccccc3c2NC(=O)C2CCCCC2)c1 | inactive: -4.95% |  |
| COc1ccc(C(=O)/C=C/c2cn(CC(O)CN3CCc4ccccc43)c3ccccc23)cc1 (stereo not drawn) | inactive: -7.68% |  |
| COC(=O)c1cc(NC(=O)c2cc3sccc3n2Cc2ccc(Cl)cc2)cc(C(=O)OC)c1 | inactive: -14.6% |  |
| O=C1NC(NS(=O)(=O)c2ccccc2)(C(F)(F)F)C(=O)N1c1ccc(F)cc1 (stereo not drawn) | inactive: 14.1% |  |
| Cc1cc(N2CCC(C(=O)N(CC(C)C)CC(C)C)CC2)n2nc(C)c(-c3ccc(Cl)cc3)c2n1 | inactive: -5.99% |  |
| O=C(c1cnn(-c2ccc(F)cc2)c1-n1cccc1)N1CCN(c2ccc(Cl)cc2)CC1 | inactive: 1.09% |  |
| Fc1ccc(-n2ncc3c(Nc4cccc(Cl)c4)ncnc32)cc1 | inactive: 9.06% |  |

| Structure (SMILES) | activity change, negative = inhibition | Potency |
| --- | --- | --- |
| COc1ccccc1C1C=C(c2ccc(C(C)C)cc2)Nc2nnnn21 (stereo not drawn) | inactive: -3.39% |  |
| CSc1ncc(Cl)c(C(=O)N(Cc2ccc(C)cc2)C2CCS(=O)(=O)C2)n1 (stereo not drawn) | inactive: -13% |  |
| Cc1cc(C)cc(OCc2cc(=O)n3c(-c4ccccc4)csc3n2)c1 | inactive: -11.6% |  |
| Cc1cccc(CNC(=O)c2ccc3c(c2)c(C)c(C)n3Cc2ccccc2)c1 | inactive: -12.9% |  |
| COc1ccccc1NC(=O)Cn1c(=O)c(CNc2ccccc2)cc2cc(OC)c(OC)cc21 | inactive: -3.11% |  |
| COc1cc(OC)cc(-c2nc3nc(C)c(CCC(=O)Nc4ccc(C)cc4C)c(C)n3n2)c1 | inactive: -0.278% |  |
| CCN(CC)S(=O)(=O)c1ccc(C(=O)Nc2nc3ccc(Cl)cc3s2)cc1 | inactive: -5.88% |  |
| O=C1CCc2cc(S(=O)(=O)NCc3ccccc3Cl)cc3c2N1CC3 | inactive: 0% |  |
| O=S(=O)(c1ccccc1)c1nnn2c1nc(NCc1ccc(Cl)cc1)c1sccc12 | inactive: -10.2% |  |
| COc1cccc(NC(=O)Cn2cc(S(=O)(=O)Cc3ccccc3F)c3ccccc32)c1 | inactive: -12.8% |  |
| O=C(CCn1ccc2cc(S(=O)(=O)N3CCCC3)ccc21)NCc1ccccc1F | inactive: 1.04% |  |
| CCn1nc(C)c2c(-c3ccccc3)cc(=O)n(C(C)C(=O)NCc3ccccc3OC)c21 (stereo not drawn) | inactive: -12.3% |  |
| CC1CCCN(CCCNC(=O)c2ccc3c(c2)N(Cc2ccc(Cl)cc2)C(=O)c2ccccc2S3(=O)=O)C1 (stereo not drawn) |  | active: 13.1 µM |
| Cc1ccc(C)c(NC(=O)Cn2cc(S(=O)(=O)Cc3cccc(Cl)c3)c3ccccc32)c1 | inactive: -9.3% |  |
| CCc1ccc(NC(=O)CN2C(=O)CSc3ccc(S(=O)(=O)N(C)C)cc32)cc1 | inactive: -1% |  |
| O=C(NCc1ccccc1)c1ccc2c(c1)CCN2S(=O)(=O)c1ccc(Cl)cc1 | inactive: -3.69% |  |
| COc1ccc2cc3c(N)nn(C(=O)c4ccccc4Cl)c3nc2c1 | inactive: -14.5% |  |
| COc1ccc(-c2noc(CN(C(=O)C(C)Oc3ccc(C)cc3)C(C)C)n2)cc1 (stereo not drawn) | inactive: -1.09% |  |
| CCn1cc(C(=O)NCCc2ccc(OC)c(OC)c2)c(=O)c2cc(S(=O)(=O)N(C)C3CCCCC3)ccc21 | inactive: 1.77% |  |
| CCOc1ccc(NC(=O)N2CCN(c3ccc(Cl)c(Cl)c3)CC2)cc1 | inactive: 0% |  |
| CCc1ccc(NCc2cc3ccc(OC)cc3n(CC(=O)Nc3c(C)cc(C)cc3C)c2=O)cc1 | inactive: -1.74% |  |
| CC(C)Oc1ccc(C(=O)N(Cc2ccc(N(C)C)cc2)C2CCS(=O)(=O)C2)cc1 (stereo not drawn) | inactive: 3.45% |  |
| Cc1ccccc1CNC(=O)CCS(=O)(=O)c1cc2c3c(c1)CCN3C(=O)CC2 | inactive: 6.22% |  |
| CCOc1cccc(CNC(=O)c2ccc(N3CCCC3)c(NC(=O)NCc3ccccc3)c2)c1 | inactive: 14.1% |  |

| Structure (SMILES) | activity change, negative = inhibition | Potency |
| --- | --- | --- |
| COc1ccc(Cl)cc1NC(=O)Cn1ccn(-c2cc(C)cc(C)c2)c(=O)c1=O | inactive: 11.2% |  |
| Cn1nnc2c(N3CCN(c4ccc(F)cc4)CC3)ncnc21 | inactive: 1.48% |  |
| Cc1ccc(N2CCN(C(=O)c3cc4cc5ccc(C)cc5nc4s3)CC2C)cc1 (stereo not drawn) | inactive: 5.4% |  |
| Fc1ccc(-n2ncc3c(Nc4ccc5c(c4)OCCO5)ncnc32)cc1 | inactive: 8.93% |  |
| Cc1ccc(Nc2sc(C(=O)c3ccccc3)c(N)c2S(=O)(=O)c2ccccc2)cc1Cl | inactive: -3.61% |  |
| COc1ccccc1N1CCN(C(=O)CCS(=O)(=O)c2ccc3c(c2)oc(=O)n3C)CC1 | inactive: -4.93% |  |
| COc1ccc(-c2noc(CSc3nnc(C)n3-c3cccc(C)c3)n2)cc1 | inactive: -7.3% |  |
| COc1cc(C(=O)NCCc2csc(-c3ccc(Cl)cc3)n2)cc(OC)c1OC | inactive: 0.921% |  |
| COc1ccc(O)c(C2=Nc3ccccc3N=C(c3ccccc3)C2)c1 | inactive: 7.96% |  |
| CNC(=O)c1ccc2c(c1)N(Cc1cc(C)ccc1C)C(=O)c1ccccc1S2 | inactive: -5.77% |  |
| COc1ccc(CNC(=O)c2ccc(-c3nc(CSc4ccc(C)cc4)c(C)o3)cc2)c(OC)c1 | inactive: -0.0106% |  |
| Cc1cccc(CCNC(=O)c2cc3c(s2)-c2c(C)cccc2OC3)c1 | inactive: -2.99% |  |
| CCCN1CCN(C(=O)Cn2c(-c3cccs3)cc3cc(F)ccc32)CC1 | inactive: -1.61% |  |
| Cc1ccc2c(c1)N(C(=O)Nc1cccc3c1CCCC3)CCO2 | inactive: 0.351% |  |
| O=C(NCCc1ccccc1)c1ccc(Nc2nc3ccccc3n3nnnc23)cc1 | inactive: -1.92% |  |
| COc1ccc(C2c3c(n(C)c4ccccc34)C(=O)N2CC(=O)Nc2cccc(Cl)c2)cc1 (stereo not drawn) | inactive: -1.02% |  |
| CCOC(=O)c1c(NC(=O)CSc2cn(CCNC(=O)c3ccc(OC)cc3)c3ccccc23)sc2c1CCCC2 | inactive: -3.31% |  |
| CCc1ccc2oc(C(=O)Nc3nc(-c4ccc(F)cc4)ns3)c(C)c2c1 | inactive: 2.33% |  |
| CCOC(=O)c1cccc(NC(=O)CC2C(=O)N(c3ccccc3)C(=O)N2Cc2ccco2)c1 (stereo not drawn) | inactive: 0.647% |  |
| COc1ccc(-c2cc(C(F)(F)F)n3nc(C(=O)OC(C)C)cc3n2)cc1 | inactive: -1.3% |  |
| Cc1cc2c(n1-c1ccc(C(=O)NCCc3ccc(Cl)cc3)cc1)CCC(C)C2 (stereo not drawn) | inactive: 0.912% |  |
